Experimental data taken from PMC10290081.

Target: Homo sapiens full-length TRPV4 (hTRPV4), C-terminal FLAG-tag and 10x His-tag (human) (UniProt Q9HBA0)
Assay: cryo-EM structure; single-particle cryo-EM of TRPV4 purified in detergent (LMNG/CHS/GDN, 20 mM Tris pH 8.0, 150 mM NaCl) with copurified endogenous Rho GTPase; ligand-free, with 20 uM GSK279, with 20 uM GSK101 + 2 mM GTPgammaS, with 40 uM 4alpha-PDD + 2 mM GTPgammaS

- stoichiometry N: 4 subunits
Substance: Homo sapiens full-length TRPV4 (hTRPV4), C-terminal FLAG-tag and 10x His-tag (a stretch of the chain, no sequence given) (natural protein; other documents disagree on this pair)
